Measurements published in the supplement of paper PMC9334596.
Several values for one entry are separate records, joined by “and”; a condition that tells them apart may be missing. Identical values can stand only once. The full ranking holds about 5,300 compounds; the median of “PER2::LUC luminescence relative to vehicle control” is about 0.96, and the highest 2% start at about 1.3. The list shows a part of the results.

System: mPer2Luc MEF
Assay: PER2::LUC luminescence relative to vehicle control (fold of vehicle); higher = higher PER2::LUC reporter signal
Conditions: 10 µM
Summary of the method: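 Each value gives PER2::LUC luminescence as fold of vehicle control, measured with the ONE-Glo luciferase assay system in mouse embryonic fibroblasts carrying the mPer2Luc reporter. Cells grown in DMEM with 10% FBS at 37 °C and 5% CO2 were seeded at ~3000 per well in 384-well plates. Library compounds were added at 10 μM 48 h later, and readings were taken 24 h and 30 h after treatment.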

Structure (SMILES)	PER2::LUC luminescence (time after treatment 24 h)	PER2::LUC luminescence (time after treatment 30 h)
COc1cc(/C=C/C(=O)c2ccc(O)cc2O)ccc1O	1.02	1.04
CN1CCC(=C2c3ccccc3CC(=O)c3sccc32)CC1	0.913	0.838
COc1ccccc1N1CCN(CC(O)COc2cccc3ccccc23)CC1 (stereo unspecified)	0.979 and 0.717	1.03 and 0.991
Nc1nc(N)c2nc(-c3cccc(O)c3)cnc2n1	0.78	0.636
CCN1C(=O)NC(c2ccccc2)C1=O (stereo unspecified)	0.986	0.921
CCCN(CCC)C(=O)C(CCC(=O)O)NC(=O)c1ccccc1 (stereo unspecified)	0.645	0.966
CCCCC[C@H](CC(=O)O)C(=O)O	1.03	0.945
CC[C@H](CC[C@@H](C)[C@H]1CC[C@H]2[C@@H]3CC=C4C[C@@H](O)CC[C@]4(C)[C@H]3CC[C@]12C)C(C)C	0.951	0.934
O=C(O)CC[C@H]1CC[C@@](c2cc(F)ccc2F)(S(=O)(=O)c2ccc(Cl)cc2)CC1	1.19	0.985
COC(=O)c1ccccc1O	0.863	0.993
CCCNC[C@]1(O)[C@H](C)O[C@@H](O[C@H]2[C@H](C)[C@@H](O[C@@H]3O[C@H](C)C[C@H](N(C)C)[C@H]3O)[C@](C)(O)C[C@@H](C)CN[C@H](C)[C@@H](O)[C@](C)(O)[C@@H](CC)OC(=O)[C@@H]2C)C[C@@]1(C)OC	1.05	0.881
O=C[C@H](O)[C@H](O)CO	0.921	0.987
O.O.O.O.O=C([O-])CC(O)(CC(=O)[O-])C(=O)[O-].[Li+].[Li+].[Li+]	1.02	1.04
N#CC(c1ccc(Cl)cc1)c1c(Cl)cc(-n2ncc(=O)[nH]c2=O)cc1Cl (stereo unspecified)	0.707	0.715
OCc1cc([C@@H](O)CNCCCCCCOCCOCc2c(Cl)cccc2Cl)ccc1O	0.952	0.868
CCOc1ccc(-n2c(C(C)N(Cc3cccnc3)C(=O)Cc3ccc(F)c(C(F)(F)F)c3)nc3ncccc3c2=O)cc1 (stereo unspecified)	0.976	0.903
O=c1ccc2ccc(O)c(O)c2o1	1.11	1.18
CC(=O)NCCc1c[nH]c2ccc(O)cc12	0.952	1.13
COc1cc(OC)c(C(=O)CCCN2CCCC2)c(OC)c1	0.87	0.877
COc1ccc(CCNCc2ccc(OCc3ccc(Cl)nc3)c(OC)c2)cc1OC	0.934	0.821
OCC1=C[C@@H](O)[C@@H]2C=CO[C@@H](O[C@@H]3O[C@H](CO)[C@@H](O)[C@H](O)[C@H]3O)[C@H]12	1.05	0.988
CCOc1ccc(Cc2cc([C@@H]3O[C@H](SC)[C@@H](O)[C@H](O)[C@H]3O)ccc2Cl)cc1	0.997	0.927

Structure (SMILES)	PER2::LUC luminescence (time after treatment 24 h)	PER2::LUC luminescence (time after treatment 30 h)
CC(C)(C)C(=O)OCOP(=O)(COCCn1cnc2c(N)ncnc21)OCOC(=O)C(C)(C)C	0.711	0.646
COc1cc(-c2coc3cc(OC)c(OC)c(OC)c3c2=O)cc(OC)c1OC	0.972	0.969
C=CC(=O)Nc1cccc(Nc2nc(Nc3ccc(N4CCN(C(C)=O)CC4)cc3OC)ncc2C(F)(F)F)c1	0.361	0.32
O=C(Nc1ccc(O)cc1)c1ccccc1O	1.07	1.07
CS(=O)(=O)CCNCc1ccc(-c2ccc3ncnc(Nc4ccc(OCc5cccc(F)c5)c(Cl)c4)c3c2)o1	0.735 and 0.687	0.648 and 0.654
Nc1ccc(-c2nc3ccc(-c4nc5ccc(N)cc5[nH]4)cc3[nH]2)cc1	0.876	0.866
CC1Nc2ccc(Cl)cc2S(=O)(=O)N1 (stereo unspecified)	0.966	0.916
CCC(=O)c1ccc(O)cc1	1.04	1.04
Nc1c(Br)cc(Br)cc1CN[C@H]1CC[C@H](O)CC1	0.939 and 0.929	0.89 and 0.646
Oc1ccc(Cl)c2cccnc12	1.09 and 0.977	0.936 and 0.861
Cn1ccnc1S	0.758	1.14
C[C@]12CCC3c4ccc(OC(=O)c5ccccc5)cc4CCC3C1CCC2=O (stereo partly specified)	1.13	1.11
CN1CCc2ccccc2Cc2[nH]c3ccccc3c2CC1	1.11	0.824
Cc1cccc(-c2[nH]ncc2-c2ccnc3ccccc23)n1	0.792 and 0.444	0.659 and 0.608
CC(C)(Sc1cc(C(C)(C)C)c(O)c(C(C)(C)C)c1)Sc1cc(C(C)(C)C)c(O)c(C(C)(C)C)c1	0.979	0.805
Clc1ccc(N/N=C(/c2ccccc2)c2ccccn2)nc1	0.832	0.785
CCCCCCCCCCCCCC/C(C(=O)O)=C(\C)C(=O)O	1.12	1.03
O=c1cc(N2CCNCC2)oc2c(-c3ccccc3)cccc12	0.722	0.683
CCC[C@H](Nc1nc(-c2ccc(NC(=O)NCC)c(OC)c2)ncc1C)c1cccnc1	0.234 and 0.212	0.33 and 0.268
N[C@@H](Cn1ccc(=O)c(O)c1)C(=O)O	1.02	0.995
CC(=O)NO	0.947	0.848
O=NO	1.04	0.972

Structure (SMILES)	PER2::LUC luminescence (time after treatment 24 h)	PER2::LUC luminescence (time after treatment 30 h)
CC(N)(Cc1ccc(O)c(O)c1)C(=O)O (stereo unspecified)	0.993	1.08
O=C(O)CCC(=O)Nc1ccc(Br)cn1	1.03	1.03
CC(=O)N[C@@H](CCC(N)=O)C(=O)O	0.758	1.14
COc1ccc(-c2c(O)c3c(OC)c4c(cc3oc2=O)OC(C)(C)C=C4)cc1	1.5	1.46
CC(C)(Oc1ccc(Cl)cc1)C(=O)O	0.944	0.888
CC(=O)[C@@]1(O)CC[C@H]2[C@@H]3CCC4=CC(=O)CCC4=C3[C@@H](c3ccc(N(C)C)cc3)C[C@@]21C	0.8	0.786
CC[C@H]1OC(=O)[C@@](C)(F)C(=O)[C@H](C)[C@@H](O[C@@H]2O[C@H](C)C[C@H](N(C)C)[C@H]2O)[C@](C)(OC)C[C@@H](C)C(=O)[C@H](C)[C@H]2N(CCCCn3cc(-c4cccc(N)c4)nn3)C(=O)O[C@]12C	0.829	0.845
CNC(=O)c1cccc(NC(=O)N2CCC(Oc3ccccc3Cl)CC2)c1	0.824	0.732
CN1CCCN=C1COC(=O)C(O)(c1ccccc1)C1CCCCC1 (stereo unspecified)	0.671	0.984
COc1cc(Nc2ncc(F)c(Nc3ccc4c(n3)NC(=O)C(C)(C)O4)n2)cc(OC)c1OC	0.597	0.603
CSc1ccc(C(=O)c2[nH]c(=O)[nH]c2C)cc1	1.13	1.12
CC(C(=O)Nc1cc(C#N)ccc1CCCC(=O)O)c1ccc(F)c2ccccc12 (stereo unspecified)	1.06	1.03
CCC(=O)OCC(=O)[C@@]1(OC(=O)CC)[C@H](C)CC2C3C([C@@H](O)C[C@@]21C)[C@@]1(C)C=CC(=O)C=C1C[C@H]3Cl (stereo partly specified)	0.542	0.871
CO[C@H]1C[C@H](O[C@H]2[C@H](C)[C@@H](O[C@@H]3O[C@H](C)C[C@H](N(C)C)[C@H]3OC(C)=O)[C@@H](C)C[C@@]3(CO3)C(=O)[C@H](C)[C@@H](OC(C)=O)[C@@H](C)[C@@H](C)OC(=O)[C@@H]2C)O[C@@H](C)[C@@H]1OC(C)=O	1.07	1.09
COc1ccc(-c2ccc(=N)n(CCCC(=O)O)n2)cc1	1.1 and 1.01	0.985 and 0.949
O=C(O)C1CSCN1 (stereo unspecified)	0.902	0.929
CC(C)(S)[C@@H](N)C(=O)O	0.875 and 0.939	1.02 and 0.943
C=CCCCCCCCCCCCC(O)CC(O)COC(C)=O (stereo unspecified)	0.894	0.95
Cc1ccc(NC(=O)c2ccc(CN3CC[C@H](N(C)C)C3)c(C(F)(F)F)c2)cc1Nc1nccc(-c2cncnc2)n1	0.561	0.628
NCC1CCC(C(=O)O)CC1 (stereo unspecified)	0.928	1
CC1(C)CCC(CN2CCN(c3ccc(C(=O)NS(=O)(=O)c4ccc(NCC5CCOCC5)c([N+](=O)[O-])c4)c(Oc4cnc5[nH]ccc5c4)c3)CC2)=C(c2ccc(Cl)cc2)C1	1.18	1.21
CCCCCCCCCCC[C@@H](C[C@@H]1OC(=O)[C@H]1CCCCCC)OC(=O)[C@H](CC(C)C)NC=O	0.76	0.994

Structure (SMILES)	PER2::LUC luminescence (time after treatment 24 h)	PER2::LUC luminescence (time after treatment 30 h)
CS(=O)(=O)c1cccc(CNc2nc(Nc3ccc4c(c3)CCC(=O)N4)ncc2C(F)(F)F)c1	0.647	0.495
Cn1c(=O)c2c(ncn2CC(=O)O)n(C)c1=O	0.921	0.927
O=C1O[C@H](CO)[C@@H](O)[C@H](O)[C@H]1O	0.949 and 0.615	0.958 and 0.806
O=C(CC(c1ccccc1)c1ccccc1)N1CCN(C(c2ccccc2)c2ccccc2)CC1	1.08	1.18
COc1cc(C/C=C/c2ccccc2)c(OC)cc1O	0.977	0.906
S=C(Nc1ccccc1)Nc1nccs1	1.46	1.58
COc1ccc(-c2oc3ccccc3c(=O)c2OC)cc1	0.987	1.2
N=C(N)N	0.89	0.961
O=C1CCC(N2C(=O)c3ccccc3C2=O)C(=O)N1 (racemic)	0.853	1.03
C[C@]12CC[C@H]3C(=CCc4cc(O)ccc43)[C@@H]1CCC2=O	1.12	1.27
C[C@]12C=CC(=O)C=C1CC[C@@H]1[C@@H]2[C@@H](O)C[C@@]2(C)[C@H]1CC[C@]2(O)C(=O)COP(=O)(O)O	0.565	0.913
O=C(c1ccc2nccnc2c1)N1CCCCC1	1.12	1.12
CNC(=O)[C@H]1O[C@@H](n2cnc3c(NCc4cccc(I)c4)ncnc32)[C@H](O)[C@@H]1O	1.08	0.882
C=C[C@H]1CN2CC[C@H]1C[C@@H]2[C@@H](O)c1ccnc2ccc(OC)cc12	0.899 and 0.774 and 0.856	0.88 and 0.973 and 0.871
Cc1c(C(N)=O)cc([N+](=O)[O-])cc1[N+](=O)[O-]	0.975	0.949
C=CCN1CCN(c2nc3ccccc3nc2C#N)CC1	0.928	1
CC(C)C(=O)OC[C@H]1O[C@@H](n2ccc(N)nc2=O)[C@](C)(F)[C@@H]1OC(=O)C(C)C	1.07	1.03
NC(N)=NCCNS(=O)(=O)c1cccc2cnccc12	1.13	1
CN(C)c1ccc2nc3ccc(=[N+](C)C)cc-3sc2c1	0.944 and 0.77	0.769 and 0.373
COc1ccc(C2C(=O)c3ccccc3C2=O)cc1	1.08	1.36
Cc1cccc(C)c1NC(=O)C1CCCCN1C (stereo unspecified)	0.744	1
CCc1nc(-c2cccc(C)c2)c(-c2ccnc(NC(=O)c3ccccc3)c2)s1	0.637	0.991
